Publication PMC3268518 (Molecular Cell, 2011)

Biological target: T1, co-purified GST-eIF4G1/eIF4E complex (yeast, UniProt P39935 1-952; P07260 1-213)
T1 sequence (looked up) 1: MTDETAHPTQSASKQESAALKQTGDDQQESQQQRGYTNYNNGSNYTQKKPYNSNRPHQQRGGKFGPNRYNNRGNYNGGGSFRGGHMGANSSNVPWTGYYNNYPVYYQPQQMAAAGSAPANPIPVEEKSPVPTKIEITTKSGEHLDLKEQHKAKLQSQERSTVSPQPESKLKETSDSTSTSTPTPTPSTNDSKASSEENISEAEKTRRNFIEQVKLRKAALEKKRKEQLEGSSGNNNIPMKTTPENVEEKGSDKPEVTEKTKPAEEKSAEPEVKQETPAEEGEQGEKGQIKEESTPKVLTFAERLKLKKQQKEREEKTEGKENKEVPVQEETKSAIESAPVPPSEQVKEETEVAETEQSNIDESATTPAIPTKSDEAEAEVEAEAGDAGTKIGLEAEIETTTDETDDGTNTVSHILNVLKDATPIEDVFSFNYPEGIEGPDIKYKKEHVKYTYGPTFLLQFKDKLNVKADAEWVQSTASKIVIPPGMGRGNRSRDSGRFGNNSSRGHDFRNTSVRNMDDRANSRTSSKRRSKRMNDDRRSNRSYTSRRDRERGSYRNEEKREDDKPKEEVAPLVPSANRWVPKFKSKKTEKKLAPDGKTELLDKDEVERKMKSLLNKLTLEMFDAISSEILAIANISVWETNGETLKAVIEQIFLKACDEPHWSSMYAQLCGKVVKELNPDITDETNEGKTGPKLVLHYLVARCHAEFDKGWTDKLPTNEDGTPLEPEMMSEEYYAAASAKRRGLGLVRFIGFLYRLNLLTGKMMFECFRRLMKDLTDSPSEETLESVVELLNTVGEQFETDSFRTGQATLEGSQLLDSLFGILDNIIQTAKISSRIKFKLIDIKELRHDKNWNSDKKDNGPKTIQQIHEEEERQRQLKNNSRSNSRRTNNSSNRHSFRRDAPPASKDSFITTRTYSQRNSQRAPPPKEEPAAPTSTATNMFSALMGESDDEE
T1 sequence (looked up) 2: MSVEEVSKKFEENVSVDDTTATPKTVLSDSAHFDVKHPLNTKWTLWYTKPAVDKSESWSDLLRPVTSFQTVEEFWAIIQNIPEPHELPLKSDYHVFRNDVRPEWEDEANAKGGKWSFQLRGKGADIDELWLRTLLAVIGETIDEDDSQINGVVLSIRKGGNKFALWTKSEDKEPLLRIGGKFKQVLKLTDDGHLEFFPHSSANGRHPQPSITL
Test: pull-down

binding result: binds
B1: rded[…]A (enzyme)
chain: not shown
